Measured values as given in PubChem BioAssay (NCATS).
The shares of active, inactive and inconclusive entries below differ from those in the screen. A potency beside an inconclusive call is a rough fit, not a confirmed value. The source made the active and inactive calls. Calls come from the whole dose curve; as a rule, active = well fitted inhibition curve with a large enough effect; inconclusive = small, poorly fitted or top-dose-only effect, or another doubt; inactive = no such curve, though single readings can be large or run the other way.

Target: Vitamin D3 receptor (Homo sapiens) (UniProt P11473)
Sequence of UniProt P11473 (P11473 whole entry, looked up): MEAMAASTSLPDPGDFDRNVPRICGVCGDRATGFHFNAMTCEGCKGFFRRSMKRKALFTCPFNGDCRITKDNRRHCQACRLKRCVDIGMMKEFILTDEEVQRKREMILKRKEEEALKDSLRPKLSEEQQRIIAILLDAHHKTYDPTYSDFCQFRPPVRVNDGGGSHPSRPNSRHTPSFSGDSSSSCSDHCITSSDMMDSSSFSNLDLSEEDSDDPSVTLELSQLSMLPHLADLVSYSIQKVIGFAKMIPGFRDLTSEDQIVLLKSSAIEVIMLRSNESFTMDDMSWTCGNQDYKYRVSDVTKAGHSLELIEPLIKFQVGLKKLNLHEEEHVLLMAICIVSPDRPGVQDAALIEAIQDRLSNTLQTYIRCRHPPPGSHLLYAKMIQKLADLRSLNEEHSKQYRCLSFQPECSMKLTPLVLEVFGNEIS
Test: qHTS for Inhibitors of the vitamin D receptor (VDR): Hit Validation using a Beta-Lactamase Assay (AID 602202)
Conditions: VDR beta-lactamase reporter cells, FRET ratio; series mostly up to 46.1 µM; activity change, negative = inhibition: at the top concentration
Procedure, shortened: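 Beta-lactamase reporter read-out (447 nm emission of cleaved FRET substrate, 2 h) after 18 h compound exposure of HEK293 cells carrying a VDR-GAL4 fusion and UAS reporter, stimulated with LG190178.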
% is set by controls: 0 for no effect and ±100 for the full control effect; potency is the fitted concentration of half-maximal effect; tags give direction and shape of the fitted curve.

Row | SMILES | Potency | activity change, negative = inhibition
1 | O=C1NC(=O)C(=Cc2ccc(-c3cc(Cl)ccc3[N+](=O)[O-])o2)C(=O)N1 | inconclusive: 29.1 µM [inhibitor, single point] | 
2 | O=C1NC(=O)C(=Cc2cc(Cl)ccc2OCc2ccc(C(=O)O)cc2)C(=O)N1 |  | inactive: 25.6%
3 | C=CCN1C(=O)/C(=C/c2ccc(Br)s2)C(=O)NC1=S | inconclusive: 29.1 µM [inhibitor, single point] | 
4 | O=C1NC(=O)C(=Cc2ccc(Sc3ccccc3)o2)C(=O)N1 | inconclusive: 18.4 µM [inhibitor, single point] | 
5 | CC1CCN(C(CC(=O)c2ccccc2)C(=O)c2ccccc2)CC1 (stereo not drawn) | inconclusive: 29.1 µM [inhibitor, single point] | 
6 | O=c1oc2ccccc2c(O)c1[C@H]1c2ccc(O)cc2Oc2c1c(=O)oc1ccccc21 | active: 20.6 µM | 
7 | CN1C(=O)/C(=C/c2ccc(Cl)s2)C(=O)NC1=S | inconclusive: 29.1 µM [inhibitor, single point] | 
8 | N#CC(C#N)=NNc1ccc(-n2ccc(C(F)(F)F)n2)cc1 | inconclusive: 14.6 µM [inhibitor, partial curve, poor fit] | 
9 | CN1C2CCC1/C(=C/c1ccccn1)C(=O)/C2=C\c1ccccn1 | active: 2.06 µM | 
10 | COc1cc(/C=C/[N+](=O)[O-])ccc1OC(=O)c1cccnc1 | inconclusive: 32.6 µM [inhibitor, single point] | 
11 | O=C1NC(=S)NC(=O)C1=Cc1ccc(Br)s1 | inconclusive: 29.1 µM [inhibitor, single point] | 
12 | CN(C)c1ccc(/C=C/[N+](=O)[O-])cc1 |  | inactive: -0.179% [at 46.1 µM, cells co-treated with VDR agonist LG190178]
13 | Cc1nn(Cc2ccccc2)c(C)c1C=C1C(=O)NC(=S)NC1=O | inconclusive: 29.1 µM [inhibitor, single point] | 
14 | O=C(O)c1ccccc1-c1ccc(C=C2C(=O)N(c3ccccc3)C(=S)N(c3ccccc3)C2=O)o1 |  | inactive: 24.4%
15 | CN1C(=O)NC(=O)/C(=C\C=C\c2ccccc2[N+](=O)[O-])C1=O | inconclusive: 18.4 µM [inhibitor, single point] | 
16 | COc1cc(/C=C/[N+](=O)[O-])ccc1O | inconclusive: 29.1 µM [inhibitor, single point] | 
17 | CCCCn1c(O)c(C(=O)/C=C/c2ccc3c(c2)OCO3)c(=O)[nH]c1=O | inconclusive: 29.1 µM [inhibitor, single point] | 
18 | CC(C)n1c(O)c(C2c3cc(Cl)ccc3Oc3[nH]c(=O)n(C(C)C)c(=O)c32)c(=O)[nH]c1=O (stereo not drawn) | active: 5.17 µM | 
19 | O=C1NC(=O)C(=Cc2ccc(-c3ccc(S(=O)(=O)N4CCOCC4)cc3)o2)C(=O)N1 |  | inactive: 34.1%
20 | CCCCn1c(NC(=O)c2ccc(Br)o2)c(C(=O)OCC)c2nc3ccccc3nc21 | inconclusive: 14.6 µM [inhibitor, partial curve] [cells co-treated with VDR agonist LG190178] | 
21 | COc1cccc(C2CC3C(=O)C=CC2N3Cc2ccccc2)c1 (stereo not drawn) | active: 20.6 µM | 
22 | CN1C(=O)NC(=O)/C(=C/c2ccc([N+](=O)[O-])s2)C1=O |  | inactive: 10.5%
23 | O=C(O)CCn1cc(C=C2C(=O)NC(=S)NC2=O)c(-c2ccccc2)n1 |  | inactive: 14.7%
